Test results from paper PMC4336329 (PLoS ONE, 2015).
Among all 310,000 compounds or so, about 2,200 (0.71%) showed an effect of 50% or more. Effects have a minus sign here. Some of the results follow.

Each compound was assayed against human ether-à-go-go-related gene (hERG) potassium channel (human, UniProt Q12809) (assay: primary screen, population patch clamp on CHO cells stably expressing hERG).
human ether-à-go-go-related gene (hERG) potassium channel, sequence (Q12809 whole entry, looked up): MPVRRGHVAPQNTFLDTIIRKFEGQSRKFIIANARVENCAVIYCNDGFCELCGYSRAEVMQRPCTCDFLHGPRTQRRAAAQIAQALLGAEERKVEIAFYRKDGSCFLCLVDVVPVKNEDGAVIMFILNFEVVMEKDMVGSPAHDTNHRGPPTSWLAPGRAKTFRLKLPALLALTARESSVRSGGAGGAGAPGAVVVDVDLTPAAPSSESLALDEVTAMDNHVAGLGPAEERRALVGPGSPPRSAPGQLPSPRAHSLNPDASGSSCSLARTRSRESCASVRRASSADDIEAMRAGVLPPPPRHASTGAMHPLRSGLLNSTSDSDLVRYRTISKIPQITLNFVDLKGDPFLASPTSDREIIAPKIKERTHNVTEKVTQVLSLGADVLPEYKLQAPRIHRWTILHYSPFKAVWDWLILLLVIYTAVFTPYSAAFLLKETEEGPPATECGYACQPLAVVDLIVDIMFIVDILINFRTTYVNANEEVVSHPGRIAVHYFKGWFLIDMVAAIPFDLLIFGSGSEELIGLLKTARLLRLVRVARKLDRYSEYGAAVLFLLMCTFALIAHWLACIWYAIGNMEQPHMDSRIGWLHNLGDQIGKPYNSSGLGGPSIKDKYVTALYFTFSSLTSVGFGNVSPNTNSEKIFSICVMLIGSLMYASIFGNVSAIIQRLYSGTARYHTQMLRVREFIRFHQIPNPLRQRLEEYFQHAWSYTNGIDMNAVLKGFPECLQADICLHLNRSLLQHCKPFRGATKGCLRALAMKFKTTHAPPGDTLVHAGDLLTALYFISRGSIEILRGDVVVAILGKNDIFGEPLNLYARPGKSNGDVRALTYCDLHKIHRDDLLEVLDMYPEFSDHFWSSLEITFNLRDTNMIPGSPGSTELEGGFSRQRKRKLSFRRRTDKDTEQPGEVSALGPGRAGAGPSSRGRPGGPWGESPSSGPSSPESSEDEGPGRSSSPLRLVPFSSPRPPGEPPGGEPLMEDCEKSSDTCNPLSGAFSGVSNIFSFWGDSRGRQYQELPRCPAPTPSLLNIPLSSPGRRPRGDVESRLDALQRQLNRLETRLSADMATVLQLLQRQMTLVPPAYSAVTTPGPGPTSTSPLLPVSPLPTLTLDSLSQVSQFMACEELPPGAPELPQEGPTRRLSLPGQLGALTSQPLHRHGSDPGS

| Compound | hERG current change (%, negative = inhibition) at 1uM |
| --- | --- |
| Cn1c(=NC(=O)CSCC(=O)N2CCCCC2)sc2ccccc21 | 6.13% |
| N#Cc1nc(COc2ccc(Cl)cc2Cl)oc1N1CCOCC1 | 0.599% |
| O=C(Cn1cc(C(F)(F)F)cc(Cl)c1=O)NCc1ccc(Cl)cc1 | 16.5% |
| CCOc1cc(N2CCOCC2)c(OCC)cc1NC(=O)COC(=O)[C@@H]1CCCN1S(=O)(=O)c1ccccc1F | 2.02% |
| COc1cc(OC)cc(C(=O)NNC(=O)c2ccc(-n3cncn3)c([N+](=O)[O-])c2)c1 | 9.34% |
| O=C(CN1C(=O)C(=O)N(C2CCCC2)C1=O)NCCc1ccc(Cl)cc1Cl | 10.1% |
| O=C(Cc1ccc(F)cc1)NC1CCS(=O)(=O)C1 (centres unmarked) | 5.04% |
| Cn1c(CCc2ccccc2)nnc1SCC(=O)N1CCCC1 | 8.11% |
| S=c1nc(-c2ccccc2)n(CCCn2ccnc2)c2c1CCCC2 | 9.94% |
| COc1cccc(OC)c1C(=O)Nc1ccc(C(=O)c2ccncc2)cc1 | -10.6% |
| c1ccc(C2Nc3ccccc3-c3nc4ccccc4n32)cc1 (centres unmarked) | 8.81% |
| CCCCC1=CC2=C(c3ccco3)C(=O)C(C)(OC(=O)c3ccc(OC)cc3)C(=O)C2=CN1CCOC (centres unmarked) | 6.22% |
| CCOc1cc(NC(=O)c2ccccn2)c(OCC)cc1NC(=O)c1ccc(C)cc1 | 3.06% |
| Cc1ccc(C(=O)NCCCNC(=O)COc2ccc(Cl)cc2)cn1 | 13.9% |
| Cc1ccc(N2CCN(S(=O)(=O)N3CCCCC3)CC2)cc1Cl | 5.52% |
| Cc1ccnc(SCCn2c(N3CC(C)CC(C)C3)nc3c2c(=O)n(C)c(=O)n3C)n1 (centres unmarked) | 5.96% |
| O=C(NC1CCN(c2ncccn2)CC1)c1cccc(F)c1 | 18.9% |
| FC(F)(F)c1nnc2ccc(N3CCCCCC3)nn12 | -0.59% |
| Cc1cccc(Nc2nc3c(c(=O)n(C)c(=O)n3C)n2CC(O)CO)c1 (centres unmarked) | 2.85% |
| COc1ccc2c(Cl)c(-c3nnco3)sc2c1 | 14.1% |
| Cc1ccccc1NC(=O)Cn1c(CCC(=O)O)ccc1-c1cccs1 | 10.6% |
| CCCN(CCC)C(=O)Cc1c(-c2ccc(Cl)cc2)nc2c(Cl)cc(Cl)cn12 | 10.6% |

| Compound | hERG current change (%, negative = inhibition) at 1uM |
| --- | --- |
| O=C(COC(=O)c1cccc(S(=O)(=O)N2CCCCCC2)c1)Nc1ccccc1C(F)(F)F | 16.2% |
| Cl.OCCN1CCN(CC#CCn2c3ccccc3c3ccccc32)CC1 | -9.67% |
| Cn1nnc2cc(C(=O)Nc3ccccc3)ccc21 | 9.83% |
| Cc1cccc(NC(=O)c2cc3c(s2)-c2c(C)cccc2OC3)n1 | 26.3% |
| COc1ccc(NC(=O)[C@@H]2CCCN2C(=O)c2cccs2)cc1S(=O)(=O)N1CCCCC1 | 5.21% |
| CCCCCCOC(=O)CCn1[nH]c(=O)c2ccccc2c1=O | 20% |
| COc1ccccc1C1CC(c2ccc(NS(C)(=O)=O)cc2)=NN1S(=O)(=O)c1ccccc1 (centres unmarked) | -21.1% |
| Cc1ccc(C)c(N(CC(=O)N2CCc3ccccc3C2)S(C)(=O)=O)c1 | -10.5% |
| Cc1ccc(S(=O)(=O)Nc2cc(C(=O)NCCN3CCCC3)ccc2N2CCCCC2)cc1 | -8.57% |
| CCCc1ccc(S(=O)(=O)NCCc2ccncc2)cc1 | -3.65% |
| CCN(CCO)c1ccc(N=Cc2c(O)n(C)c(=S)[nH]c2=O)cc1 | 10.5% |
| COc1cccc(NC(=O)NCc2ccc(F)cc2)c1 | 3.63% |
| O=C(c1ccccc1)N1CCCCCC1 | 18.8% |
| COc1cc(C)nc(NS(=O)(=O)c2ccccc2Cl)n1 | 20% |
| O=C(NC1CCCCCC1)c1nc2ncccn2n1 | 21.8% |
| COc1ccccc1N1CCN(S(=O)(=O)c2c(C)sc3ncn(CC(=O)NCCN(C)C)c(=O)c23)CC1 | 10.8% |
| CCOC(=O)Cc1csc(NC(=O)COc2ccccc2OCC)n1 | -6.51% |
| Cc1cc(C=C2C(=O)CCCC2=O)c(C)n1-c1ccccc1 | 8.72% |
| COc1ccccc1NS(=O)(=O)c1cccc(C(=O)N2CCN(Cc3ccc4c(c3)OCO4)CC2)c1 | -3.65% |
| CCCOc1ccc(C(O)(CCN2CCCCC2)c2ccccc2OC)cc1.Cl (centres unmarked) | 5.1% |
| O=Cc1cn(-c2ccccc2)nc1-c1cc2c(ccc3ccccc32)oc1=O | 9.89% |
| CSc1ccccc1NC(=O)CN1CCN(S(=O)(=O)c2ccccc2[N+](=O)[O-])CC1 | -0.993% |
